# In all, about 310,000 compounds went through this assay and about 14,000 (4.5%) showed an effect of 50% or more. The effect is printed as a negative number. This is one part of the list.
# Biological target: human ether-à-go-go-related gene (hERG) potassium channel (human, UniProt Q12809)
# Assay: primary screen, population patch clamp on CHO cells stably expressing hERG
# 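Also: peak tail current of the secondary pulse compared with the same well before compound.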
# human ether-à-go-go-related gene (hERG) potassium channel, sequence (Q12809 whole entry, looked up): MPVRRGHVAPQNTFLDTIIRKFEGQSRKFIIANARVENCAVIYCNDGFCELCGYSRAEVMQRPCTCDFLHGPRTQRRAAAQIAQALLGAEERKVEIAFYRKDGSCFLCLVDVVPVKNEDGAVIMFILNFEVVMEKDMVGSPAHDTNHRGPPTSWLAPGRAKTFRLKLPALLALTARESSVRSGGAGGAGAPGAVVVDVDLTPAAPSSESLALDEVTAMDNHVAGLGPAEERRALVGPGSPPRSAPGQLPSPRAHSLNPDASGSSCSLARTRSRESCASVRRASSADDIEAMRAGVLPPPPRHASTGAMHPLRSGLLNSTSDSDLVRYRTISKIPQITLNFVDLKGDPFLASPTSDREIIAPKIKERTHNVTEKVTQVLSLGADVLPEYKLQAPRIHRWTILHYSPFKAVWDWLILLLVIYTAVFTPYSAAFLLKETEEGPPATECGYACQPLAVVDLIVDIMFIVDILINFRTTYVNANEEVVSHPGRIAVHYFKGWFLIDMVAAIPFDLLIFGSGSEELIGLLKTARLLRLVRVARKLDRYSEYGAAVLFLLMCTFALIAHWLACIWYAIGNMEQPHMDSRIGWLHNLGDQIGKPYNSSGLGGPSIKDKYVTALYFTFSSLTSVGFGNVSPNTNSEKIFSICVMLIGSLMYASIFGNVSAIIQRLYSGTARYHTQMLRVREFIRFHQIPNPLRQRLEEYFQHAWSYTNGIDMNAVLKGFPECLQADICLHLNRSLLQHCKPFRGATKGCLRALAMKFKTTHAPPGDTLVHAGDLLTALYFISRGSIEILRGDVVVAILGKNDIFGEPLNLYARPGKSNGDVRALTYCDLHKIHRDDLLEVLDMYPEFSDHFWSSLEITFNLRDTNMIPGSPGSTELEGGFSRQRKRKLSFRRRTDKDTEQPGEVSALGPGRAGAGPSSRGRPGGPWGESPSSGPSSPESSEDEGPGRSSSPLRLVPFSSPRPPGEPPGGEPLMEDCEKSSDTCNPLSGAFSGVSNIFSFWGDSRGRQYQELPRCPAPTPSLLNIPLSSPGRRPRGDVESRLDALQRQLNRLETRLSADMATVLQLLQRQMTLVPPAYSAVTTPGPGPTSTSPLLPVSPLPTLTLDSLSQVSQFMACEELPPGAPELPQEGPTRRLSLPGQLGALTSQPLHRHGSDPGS
row,SMILES,"hERG current change (%, negative = inhibition) at 10uM [%]"
1,CCOc1ccc(CCNC(=O)c2[nH]c(C)c(C(C)=O)c2CC)cc1OCC,-6.52
2,CCOc1ccccc1C(=O)NCCCCNC(=O)c1ccccc1OCC,-31.4
3,COC(=O)C1=C(Nc2ccccc2NC(=O)CCCC(=O)O)CSC1,12.9
4,COCCn1c(-c2ccco2)nc2nc3ccccc3nc21,2.99
5,O=C(Oc1cc(=O)n2ccccc2n1)c1ccccc1,8.88
6,CCN(CC)S(=O)(=O)c1ccc(OC)c(NC(=O)c2cc(=O)[nH]c3ccccc23)c1,-17.4
7,C=CCn1c(=O)c(C(=O)NCCN(CC)CC)c(O)c2ccccc21.Cl,-19.2
8,Cc1ccc(-n2nc(C(=O)O)c(O)cc2=O)cc1,19.5
9,Cc1nnc(SCC(=O)Nc2sccc2C#N)s1,11.8
10,Cc1ccc(-n2c(=O)c3sccc3n(CC(=O)NCC3CCCO3)c2=O)cc1F (centres unmarked),13
11,O=C(O)/C=C/c1cn(-c2ccccc2)nc1-c1ccccc1,3.71
12,Cc1cccn2cc(-c3cccc(S(=O)(=O)N4CCOCC4)c3)nc12,0.676
13,COc1ccc(C(=O)c2cnc[nH]2)cc1OC,10.9
14,CCOc1ccc(C(C)=O)cc1COC(=O)C(C)N=C1NS(=O)(=O)c2ccccc21 (centres unmarked),-1.19
15,CCOc1cc(-c2ccc(N)c(OCC)c2)ccc1N,-10.2
16,C=C(Br)Cn1c(CCCC)nc2ccccc21,-21.6
17,CC(C)(C)c1nnc(NS(=O)(=O)c2cc(Cl)ccc2Cl)s1,0.251
18,COCCN1C(=O)c2ccccc2C(C(=O)NCCCN2CCCC2)C1c1c[nH]c2ccccc12 (centres unmarked),2.6
19,CC(C)(Oc1ccc(Cl)cc1)C(=O)Nc1ccc(S(=O)(=O)Nc2ncccn2)cc1,-1.07
20,Cn1c(N)c(C(=O)COC(=O)CCCc2nc3ccccc3s2)c(=O)n(C)c1=O,9.03
21,COc1cccc(NC(=O)NCCCCc2ccccc2)c1,4.28
22,CC1(C)Cc2nc(-c3ccccc3)nc(SCC(=O)N3CCOCC3)c2CO1,-2.27
23,O=[N+]([O-])c1ccccc1CN1CCN(Cc2ccc3ccccc3c2)CC1,-38

row,SMILES,"hERG current change (%, negative = inhibition) at 10uM [%]"
1,CC1CCN(CCCNC(=O)c2ccc(CSCc3cccc(Cl)c3)o2)CC1,-74.8
2,C/C(=N/NC(=O)c1ccc(C)s1)c1cccnc1,7.6
3,CN(Cc1ccc(OC(F)F)cc1)C(=O)c1ccc(S(=O)(=O)N(C)c2ccccc2)cc1,-46.8
4,COCCCNC(=O)/C(C#N)=C/c1c(N2CCN(c3ccc(OC)cc3)CC2)nc2c(C)cccn2c1=O,0.982
5,Cc1ccc(-c2nn(C)c(=O)c3ccccc23)cc1S(=O)(=O)N1CCCC1,-40.6
6,CCNC(=O)Cc1c(OC)ccc2cc(Br)ccc12,2.16
7,CCC(C)N1C(=O)CCC1C(=O)NCc1ccc2c(c1)OCO2 (centres unmarked),4.3
8,COCCC(=O)N1CCCC(CCC(=O)NCc2ccc(F)c(F)c2)C1 (centres unmarked),22.8
9,COc1ccccc1C(=O)Nc1ccnn1C1CCN(Cc2cn(C)c3ccccc23)CC1,-83.6
10,Cc1ccc(-n2nc(C)c3c2OC(N)=C(C#N)C3c2ccoc2)cc1 (centres unmarked),3.53
11,CCOC(=O)C1=C(CCc2ccccc2)NC(=O)NC1c1ccc(Br)cc1 (centres unmarked),12.7
12,CCOC(=O)c1cc(-c2ccccc2)sc1NC(=O)C(C)OC(=O)c1cccnc1OCC (centres unmarked),-9.65
13,COc1cc(/C=N/N2CCCCC2)cc(OC)c1O.O=P(O)(O)O,18
14,CCCCN(CCCC)CCn1cnc2c([nH]c3ccc(OC)cc32)c1=O,-36.6
15,CN(CC#CC1(O)c2ccccc2-c2ccccc21)Cc1ccccc1,3.5
16,COc1ccc(OC)c(S(=O)(=O)n2cccn2)c1,17.1
17,CSCC[C@H](NC(=O)OC(C)(C)C)c1nnc(SCC(=O)Nc2ccc(C)cc2C)o1,-50.1
18,COc1cc(/C=N/NC(=O)c2cccc([N+](=O)[O-])c2)ccc1OC(=O)c1ccco1,2.97
19,Brc1ccccc1OCCN1CCOCC1.O=C(O)C(=O)O,11
20,Cc1nc(CNS(=O)(=O)c2cccnc2)cs1,-9.3
21,CCOc1ccc(NC(=O)C(=O)N/N=C/c2ccccc2F)cc1,22.7
22,O=C(Nc1ccon1)C1CCN(S(=O)(=O)c2cccs2)CC1,-8.73
23,CC(=O)c1c(C)[nH]c(C(=O)CSc2nnc(-c3ccco3)o2)c1C,-4.61

row,SMILES,"hERG current change (%, negative = inhibition) at 10uM [%]"
1,COc1ccc(S(=O)(=O)N2CCOCC2)cc1C(=O)N(C)Cc1ccccc1F,-37.8
2,COc1ccc(CN(C)Cc2nc(Cc3ccccc3Cl)no2)cc1OC,-10.9
3,CCN(c1cccc(C)c1)S(=O)(=O)c1ccc2c(c1)oc(=O)n2C,9.9
4,CCCn1c(O)c2ccc(C(=O)N=NC(=O)c3cccnc3)cc2c1O,0.483
5,O=C(c1cccc(Br)c1)N1CCN(C(=O)N2CCCCC2)CC1,-1.2
6,COc1ccc(NC(=S)Nc2ccccn2)cc1,13.5
7,O=C(NCC(=O)N1CCN(c2ccc(C(F)(F)F)cn2)CC1)c1ccc(Br)o1,-71.8
8,O=C(Nc1cc(Cl)ccc1N1CCOCC1)c1ccc2c(c1)OCCO2,30.3
9,CCOC(=O)N1CCC(NC(=O)CCN2C(=O)COc3ccccc32)CC1,8.33
10,CC1=NN(c2ccccc2)C(=O)/C1=C\c1cc(C)n(-c2ccccc2)c1C,11.4
11,COc1cccc(NC(=O)CCC2CCN(C(=O)c3c(C)noc3C)CC2)c1,9.04
12,CC1=NN(c2nc(-c3ccccc3)cs2)C(=O)C1,15.9
13,CC1CCCN(C(=O)NC2CC(=O)N(c3ccc4c(c3)OCCO4)C2)C1 (centres unmarked),3.96
14,CCc1ccccc1NS(=O)(=O)c1c(C(=O)N2CCCCCC2)c(C)n(C)c1C,-25.3
15,O=C(CSc1nnc(-c2ccc(F)cc2)c2ccccc12)Nc1c(F)cccc1F,-31.7
16,COc1cc(NC(=O)c2ccc(F)cc2)c(OC)cc1NC(=O)CN1CCCCC1.Cl,-23.1
17,COc1ccc(OC)c(-c2nc(C(=O)NC3CCN(Cc4ccccc4)CC3)cc3c2[nH]c2ccccc23)c1,-43.5
18,O=C(Nc1nc(-c2ccccc2)c(-c2ccccc2)o1)c1ccc(F)cc1,-15
19,NC(=O)CSc1nccn1Cc1ccc2c(c1)OCO2,19.2
20,Cc1ccc(C)c(NC(=O)C(Sc2nc3ccccc3c(=O)n2CC(C)C)c2ccccc2)c1 (centres unmarked),-11.5
21,CC1CCCCC1n1c(-c2cccnc2)n[nH]c1=S (centres unmarked),40.2
22,Cc1ccc2c(C(=O)CNc3nncs3)c(C)[nH]c2c1,21.1
23,Cc1ccc(C(=O)NCCC(=O)NCc2ccco2)cc1,9.59

row,SMILES,"hERG current change (%, negative = inhibition) at 10uM [%]"
1,O=C(Nc1cccn(Cc2c(Cl)cccc2Cl)c1=O)c1c(Cl)cccc1Cl,2.73
2,COc1ccc(N(C(C)=O)c2nc(C)cc(C)c2C#N)c(OC)c1,11.3
3,Cc1ccccc1C(=O)Nc1ccccc1NC(=O)c1ccccc1C,14.8
4,CCCCC1OC2(C)OC(=N)C1(C#N)C(C#N)(C#N)C2c1ccccc1 (centres unmarked),-6.51
5,CC1SC2(CN3CCC2CC3)NC1=O (centres unmarked),18
6,COc1cc(NC(=O)c2cccs2)c(C(=O)OCC(=O)NCc2ccccc2)cc1OC,11.5
7,CNC(=S)N/N=C(\C)c1ccc2c(c1)OCO2,19.8
8,COc1ccc(CCNC(=O)C2CCN(S(C)(=O)=O)CC2)cc1OC,10.6
9,COc1cccc(C=Nc2cccc3c(=O)[nH][nH]c(=O)c23)c1O,14.2
10,Cc1nc(-c2coc3c(CN(C)C)c(O)ccc3c2=O)cs1,21.9
11,CN(Cc1ccc(Cl)c(Cl)c1)C(=O)CN1C(=O)NC2(CCCC2)C1=O,-7.19
12,COc1ccc(CC(=O)Nc2ncc([N+](=O)[O-])s2)cc1OC,25.5
13,CCN1CCN(C(=O)C2=CC(c3ccc(C)cc3)=NS(=O)(=O)N2C)CC1,-4.11
14,CN1CCN(NS(=O)(=O)c2cccs2)CC1,-5.96
15,Cc1ccccc1-n1nnnc1SC(C)C(=O)Nc1ccc(N2CCN(C)CC2)cc1 (centres unmarked),-25.4
16,CCOC(=O)C1CCCN(S(=O)(=O)c2ccc(OC)c3ccccc23)C1 (centres unmarked),-3.17
17,COc1ccc(-c2nnc3sc(-c4ccccn4)nn23)cc1,-13.2
18,CC(=O)Nc1cccc(C(=O)NNC(=O)c2ccccc2-n2cccc2)c1,12.3
19,CCOc1ccccc1CNS(=O)(=O)c1ccc(-c2cnc(C3CC3)o2)cc1,-18.7
20,Cc1ccc(C)c(NC(=S)N2CCCCCC2)c1,0.578

# Reference: article PMC4336329 (PLoS ONE, 2015)
